# Measured values as given in PubChem BioAssay AID602179 (National Center for Advancing Translational Sciences (NCATS), 2012).
# Screen size: about 390,000 compounds; about 360 (0.092%) were called active. Inconclusive results, whose numbers are uncertain, are shown with a selection of clear calls. The call rests on the fitted dose curve; in most records, active means well fitted inhibition curve with a large enough effect; inconclusive means small, poorly fitted or top-dose-only effect; inactive means no such curve, though single readings can be large or run the other way. A potency beside an inconclusive call is a rough fit, not a confirmed value.
# Biological target: Isocitrate dehydrogenase [NADP] cytoplasmic (Homo sapiens) (UniProt O75874)
# Experiment: qHTS for Inhibitors of mutant isocitrate dehydrogenase 1 (IDH1): qHTS; further: nearly all actives have a fitted effect of over 65% in size
# Conditions: IDH1-R132H enzyme, NADPH consumption, diaphorase/resazurin fluorescence; series mostly up to 76.6 µM
# Outline: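 IDH1-R132H (0.5 ug/mL dispensed) in pH 7.5 Tris buffer was preincubated 30 min with compound, then given a substrate mix of 0.016 mM NADPH and 2 mM alpha-KG for 80 min at room temperature; remaining NADPH was read by diaphorase/resazurin fluorescence.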
# Potency means the concentration at half of the fitted maximal effect; tags describe the fitted curve by direction and shape.
row,SMILES,Potency
1,Brc1ccc(-c2csc(NNC3=NCCCCC3)n2)cc1,active: 26.1 µM
2,Cc1ccc(-c2nnc(Nc3ccc(F)cc3)c3ccccc23)cc1S(=O)(=O)NC(C)C,"inconclusive: 39.8 µM [inhibitor, partial curve]"
3,C(=C\c1ccccc1)/C=N/N1CCN(c2ccccn2)CC1,inactive
4,CCOC(=O)c1c(-c2ccccc2)csc1NC(=O)CSc1nc(N)cc(N)n1,"inconclusive: 58.5 µM [inhibitor, single point]"
5,COc1cc(C2CC(=O)Nc3ccc4ccccc4c32)ccc1OC(=O)C(C)C (configuration not stated),"inconclusive: 50.1 µM [inhibitor, single point]"
6,CN(C)S(=O)(=O)c1cccc(NC(=O)CSc2cccc3cccnc23)c1,"inconclusive: 58.5 µM [inhibitor, single point]"
7,Cc1cc(C(C)(C)C)cc(S(=O)(=O)Nc2ccc(O)c(C(=O)O)c2)c1C,"inconclusive: 46.5 µM [inhibitor, partial curve]"
8,C=CCNC(=S)N/N=C(\C)c1ccc(OC)cc1,inactive
9,CCOC(=O)CSC1=NC(=O)/C(=C/c2ccc(OC)cc2)S1,active: 52.1 µM
10,O=C(/C=C/c1cccc([N+](=O)[O-])c1)c1ccc([N+](=O)[O-])o1,"inconclusive: 5.62 µM [inhibitor, full curve, poor fit]"
11,CCCn1c(=O)n(C)c(=O)c2c(SCC(=O)Nc3cc(C)on3)nc(C(C)(C)C)nc21,"inconclusive: 58.5 µM [inhibitor, single point]"
12,CSc1nc(N(C)NC(=O)c2ccc(Cl)cc2)c2ccccc2n1,active: 46.5 µM
13,CCc1ccc(-n2c(=S)sc3c(=O)[nH]c(SCC(=O)NC4CCCCC4)nc32)cc1,"inconclusive: 50.1 µM [inhibitor, single point]"
14,COc1ccc(-c2csc(NNC3=NCCCCC3)n2)cc1,"inconclusive: 44.7 µM [inhibitor, partial curve, poor fit]"
15,CCc1nn(-c2ccccc2)c2nc(-c3ccc(O)cc3)c3cc(OC)c(OC)cc3c12,"inconclusive: 50.1 µM [inhibitor, single point]"
16,O=C(N/N=C/c1cc(Cl)cc([N+](=O)[O-])c1O)C(O)(c1ccccc1)c1ccccc1,"inconclusive: 58.5 µM [inhibitor, single point]"
17,O=C(COC(=O)c1ccc(S(=O)(=O)NCc2ccco2)cc1)Nc1ccccc1OC(F)F,inactive
18,COC(=O)C1=C(C)N(Cc2ccccc2)C(=NCCc2c[nH]c3ccccc23)N[C@H]1c1cccc(C(F)(F)F)c1,"inconclusive: 70.8 µM [inhibitor, single point]"
19,CCNC(=O)/C(C#N)=C/c1c(N(Cc2ccccc2)Cc2ccccc2)nc2ccccn2c1=O,"inconclusive: 46.5 µM [inhibitor, partial curve]"
20,Cc1ccccc1CCNC(=O)C1CCC(=O)N(CCc2cccc(F)c2)C1 (configuration not stated),inactive
21,COc1ccccc1NS(=O)(=O)c1ccc(NC(C)=O)cc1,inactive

row,SMILES,Potency
1,CCN(CC)c1ccc(/C=N/NC(=O)c2cccc(S(=O)(=O)Nc3ccccc3OC)c2)cc1,inactive
2,Cc1ccc(C)c(S(=O)(=O)N=Nc2c(O)[nH]c3ccccc23)c1,"inconclusive: 50.1 µM [inhibitor, partial curve, poor fit]"
3,CNc1nc(N)c([N+](=O)[O-])c(Nc2ccccc2OC)n1,inactive
4,O=S(=O)(Nc1ccc(Cl)cc1)c1ccc(NS(=O)(=O)c2ccc3c(c2)OCCO3)cc1,"inconclusive: 44.7 µM [inhibitor, partial curve, poor fit]"
5,O=C(CCl)Nc1nc(-c2ccco2)c(-c2ccco2)s1,"inconclusive: 58.5 µM [inhibitor, single point]"
6,CNc1ccc(C(=O)OCC(=O)NC(=O)NC2CCCCC2)cc1[N+](=O)[O-],inactive
7,Cc1c(Cl)cccc1NS(=O)(=O)c1ccc2c(c1)C1C=CCC1C(c1ccc(C(=O)O)cc1)N2 (configuration not stated),"inconclusive: 44.7 µM [inhibitor, partial curve, poor fit]"
8,COc1cccc(/C=N/Nc2ccc(S(=O)(=O)Nc3ccccc3C(=O)O)cc2[N+](=O)[O-])c1O,"inconclusive: 52.1 µM [inhibitor, single point]"
9,Cc1cc(Cl)ccc1OCCCC(=O)NCCN1C(=O)S/C(=C\c2cccnc2)C1=O,"inconclusive: 58.5 µM [inhibitor, single point]"
10,Cc1ccc(S(=O)(=O)Nc2nc3n(n2)C(c2ccc(F)cc2)C=C(c2ccccc2)N3)cc1 (configuration not stated),"inconclusive: 50.1 µM [inhibitor, single point]"
11,O=C(O)CN1C(=O)/C(=C/c2ccc(N3CCCCC3)o2)SC1=S,active: 10.4 µM
12,O=C(CSc1ncc(S(=O)(=O)c2ccc(Cl)cc2)c(=O)[nH]1)Nc1cccc(C(F)(F)F)c1,"inconclusive: 63.1 µM [inhibitor, single point]"
13,COC(=O)C1=C(C)N(C)C(=O)NC1c1ccc(O)c(OC)c1 (configuration not stated),inactive
14,Cc1ccc(NC(=O)CN(C(=O)N2CCN(C)CC2)S(=O)(=O)c2ccc(C)cc2)cc1,inactive
15,CC(=O)Nc1ccc(NC(=O)C2(c3cccs3)CCOCC2)cc1,"inconclusive: 50.1 µM [inhibitor, single point]"
16,O=C(O)C1=C(C(=O)O)C2C=CC1C2,inactive
17,O=C(NC1CCCC1)C(c1ccsc1)N(C(=O)Cc1cccs1)c1ccccc1 (configuration not stated),"inconclusive: 7.36 µM [inhibitor, partial curve]"
18,COc1ccc(-c2cc(C(=O)NN)n(-c3ccccc3)n2)cc1,"inconclusive: 58.5 µM [inhibitor, single point]"
19,COc1ccc(N(CC(=O)Nc2cc(C)ccc2C)S(=O)(=O)c2c(C)noc2C)cc1,inactive
20,CC(OC(=O)c1ccc(NS(=O)(=O)c2ccc3[nH]c(=O)[nH]c3c2)cc1)C(=O)Nc1cccc(Cl)c1Cl (configuration not stated),"inconclusive: 41.4 µM [inhibitor, partial curve]"
21,CCO[C@@H]1OC(C(=O)Nc2ccccc2)=C[C@H](c2ccc3c(c2)OCO3)[C@H]1CCCO,"inconclusive: 44.7 µM [inhibitor, single point]"
